# Measured values taken from publication PMC4336329 (PLoS ONE, 2015).
# Out of some 310,000 compounds screened, about 14,000 (4.5%) showed an effect of 50% or more. The effect is printed as a negative number. Some of the results follow.
# Biological target: human ether-à-go-go-related gene (hERG) potassium channel (human, UniProt Q12809)
# Test: primary screen, population patch clamp on CHO cells stably expressing hERG
# 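Further: peak tail current of the secondary pulse compared with the same well before compound.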
# Chain of human ether-à-go-go-related gene (hERG) potassium channel (Q12809 whole entry, looked up): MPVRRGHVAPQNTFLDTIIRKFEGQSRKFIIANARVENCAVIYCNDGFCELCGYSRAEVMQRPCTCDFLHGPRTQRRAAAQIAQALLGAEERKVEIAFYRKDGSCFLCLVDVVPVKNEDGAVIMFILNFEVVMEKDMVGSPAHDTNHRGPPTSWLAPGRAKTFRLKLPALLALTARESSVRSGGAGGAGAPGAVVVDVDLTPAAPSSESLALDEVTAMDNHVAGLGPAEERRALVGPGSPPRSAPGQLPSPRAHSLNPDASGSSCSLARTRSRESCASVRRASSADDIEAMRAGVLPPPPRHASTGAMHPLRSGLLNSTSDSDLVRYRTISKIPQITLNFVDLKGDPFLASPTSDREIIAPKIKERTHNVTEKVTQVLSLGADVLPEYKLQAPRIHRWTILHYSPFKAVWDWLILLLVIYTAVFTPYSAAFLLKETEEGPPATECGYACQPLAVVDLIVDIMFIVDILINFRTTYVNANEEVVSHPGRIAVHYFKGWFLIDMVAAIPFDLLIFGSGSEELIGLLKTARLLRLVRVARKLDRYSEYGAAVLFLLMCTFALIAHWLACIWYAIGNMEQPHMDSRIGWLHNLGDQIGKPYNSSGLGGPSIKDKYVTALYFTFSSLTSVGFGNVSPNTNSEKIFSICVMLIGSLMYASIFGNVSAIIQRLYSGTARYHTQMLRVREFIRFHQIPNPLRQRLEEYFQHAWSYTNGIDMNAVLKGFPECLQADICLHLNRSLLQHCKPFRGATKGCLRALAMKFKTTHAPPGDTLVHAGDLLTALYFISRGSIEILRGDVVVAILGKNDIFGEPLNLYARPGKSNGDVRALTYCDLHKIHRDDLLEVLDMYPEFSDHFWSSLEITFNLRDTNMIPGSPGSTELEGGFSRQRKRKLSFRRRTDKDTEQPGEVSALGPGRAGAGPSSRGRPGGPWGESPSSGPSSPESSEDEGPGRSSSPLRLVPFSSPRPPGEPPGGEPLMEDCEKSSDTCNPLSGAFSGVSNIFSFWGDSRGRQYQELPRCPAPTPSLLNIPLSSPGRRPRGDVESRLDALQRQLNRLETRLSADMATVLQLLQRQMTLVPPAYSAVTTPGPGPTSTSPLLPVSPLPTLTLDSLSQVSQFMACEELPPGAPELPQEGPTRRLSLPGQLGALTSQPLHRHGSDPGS
row,Structure (SMILES),"hERG current change (%, negative = inhibition) at 10uM"
1,Cn1cc(C(=O)OCC(=O)NC2CCCCC2)c2ccccc21,13.2%
2,CN(c1ccccc1)S(=O)(=O)c1cccc(C(=O)NCc2ccccc2)c1,-18.3%
3,CN=C(NC(=O)Nc1c(C)cccc1C)NC(=O)Nc1c(C)cccc1C,3.97%
4,C/C(=N/NC(=O)CN1CCN(S(=O)(=O)c2ccc(Br)cc2)CC1)c1ccncc1,-80.3%
5,O=C(NC1CCCC1)C(c1ccccn1)N(C(=O)c1csnn1)c1ccccc1F (centres unmarked),-0.0171%
6,CCOC(=O)/C(=N\Nc1ccc(Cl)cc1)Sc1nnc(-c2ccc(OC)cc2)n1C,-31.1%
7,COc1ccccc1CNC(=O)Cn1cnc2ccccc2c1=O,5.64%
8,O=C1c2ccccc2C(Nc2ccc3c(c2)OCCO3)N1c1ccc(Cl)cn1 (centres unmarked),3.88%
9,Cc1ccc(S(=O)(=O)N(C)C)cc1NC(=O)COC(=O)COc1ccc2c(c1)CCC2,-17.2%
10,Cc1ccc(-c2cc(C(=O)Nc3ccc(S(=O)(=O)Nc4nccs4)cc3)c3ccccc3n2)c(C)c1,4.21%
11,O=C(NCCc1ccccc1)C1CCN(C2CCN(C(=O)CC3=CCCCC3)CC2)CC1,-25%
12,CCc1cc(C(=O)N2CCN(c3ncccn3)CC2)sc1C,-27.5%
13,CCCCN(C)Cc1c(O)ccc2c(-c3ccccc3)cc(=O)oc12,-33.9%
14,O=C(c1cc2cc(F)ccc2[nH]1)N1CCCC(Nc2ccc(F)cc2)C1 (centres unmarked),-18.7%
15,O=C(c1cnc(Cl)c(Cl)c1)N1CCC(Cc2ccccc2)CC1,-17.9%
16,COc1ccc(C2N(S(=O)(=O)c3ccccc3)CCN2S(=O)(=O)c2ccc(C)cc2)cc1 (centres unmarked),-22.9%
17,Cc1c(C(=O)N(Cc2ccncc2)CC2CCCO2)oc2c(F)cccc12 (centres unmarked),-27.1%
18,CN(CC(=O)Nc1ccc(F)c(F)c1F)C(=O)CCN1C(=O)C2CCCCC2C1=O (centres unmarked),-8.97%
19,Cc1nc2cc(NC(=O)c3ccc(N4C(=O)CCC4=O)cc3)ccc2s1,9.81%
20,COC(=O)c1cc(C#N)c(Oc2ccccc2)nc1C,-22.2%
21,NC(=O)COc1c(-c2ccc(Br)o2)oc2ccccc2c1=O,-8.75%
22,C[C@H](NS(=O)(=O)c1ccc(Cl)c(Cl)c1)C(=O)OCc1cc(=O)n2cc(Br)ccc2n1,-63.4%

row,Structure (SMILES),"hERG current change (%, negative = inhibition) at 10uM"
1,Cn1c(=O)n(Cc2ccc(F)cc2)c(=O)c2c1nc1n2CCCN1Cc1ccccc1,-16%
2,CN(C)/C=C1\N=C(c2ccc(Cl)cc2Cl)OC1=O,-6.88%
3,O=C1NC(=O)C(CCc2ccncc2)(CCc2ccccn2)C(=O)N1c1ccc(Br)cc1 (centres unmarked),-75.6%
4,Cc1ccc(Nc2c([N+](=O)[O-])ccc3c2=NC2(CCCCC2)N=3)cc1,-0.425%
5,Cc1ccc(C(=O)NCC(=O)OCC(=O)Nc2cc(S(=O)(=O)N3CCOCC3)ccc2C)cc1,-6.54%
6,CCn1cc(C(=O)NCc2cccc(F)c2)c(=O)c2cc(F)c(N3CCN(C(=O)c4ccco4)CC3)cc21,-21%
7,Cc1noc(C)c1COc1cccc(C(=O)Nc2ccc(C#N)cc2)c1,-42%
8,Cc1ccc2[nH]c3c(=O)n(N)c(=O)[nH]c3c2c1,2.89%
9,N#Cc1c(-c2ccco2)cc(C2CC2)nc1N,-9.35%
10,O=C(CCC1CCCCC1)NCCN1CCOCC1,-16.5%
11,CC(C)(O)C(O)COc1c2ccoc2cc2oc(=O)ccc12 (centres unmarked),17%
12,CC(C)OCCCNC(=O)CN1CCN(Cc2ccc(Cl)cc2)C1=O,11.6%
13,O=C(NCc1cccs1)C1CCN(S(=O)(=O)c2cccc3nsnc23)CC1,-13.1%
14,O=C(/C(=N\O)n1cncn1)c1ccc(Br)cc1Br,-13.9%
15,CCOC(=O)c1cn(Cc2ccc(Br)cc2)nn1,-0.536%
16,CC(C)OC(=O)c1ccc(NC(=S)NC(=O)c2cncc(Br)c2)cc1,16.1%
17,CCOC(=O)C1=C(C)N(C)C(=O)NC1c1cc2c(cc1Br)OCO2 (centres unmarked),-9.08%
18,O=S(=O)(c1cccc2cccnc12)N1CCOCC1,5.96%
19,Cc1onc(-c2c(F)cccc2Cl)c1C(=O)N(C)CC(=O)Nc1cccc(F)c1,-1.33%
20,CN(CC(=O)Nc1ccccc1C(F)(F)F)C(=O)COc1ccccc1Cc1ccccc1,-9.34%
21,Cc1ccc(C2c3[nH]c4ccccc4c3C[C@H]3C(=O)N(c4ccccc4C(=O)NCCN4CCOCC4)C(=O)N23)cc1 (some centres unmarked),-24.9%
22,CCOc1ccc(N2C(=O)CN(C)C2=S)cc1,13.4%

row,Structure (SMILES),"hERG current change (%, negative = inhibition) at 10uM"
1,COc1ccccc1/C=N\Nc1ccccc1[N+](=O)[O-],21.7%
2,CCCN(Cc1cc2cc(C)ccc2[nH]c1=O)S(C)(=O)=O,21.9%
3,CCOC(=O)N1CCC(Nc2c(NCCN3CCN(c4ccccc4F)CC3)c(=O)c2=O)CC1,3.81%
4,CCCN(CCC)C(=O)CC(c1ccccc1)c1ccco1 (centres unmarked),-10.4%
5,CC(C)CCc1noc(CN2CCC(CCN3CCCC3=O)CC2)n1,-3.97%
6,O=C(CSc1ccc2nnc(CCNC(=O)c3ccccc3)n2n1)NCc1ccccc1,-8.24%
7,CC(Oc1cccnc1[N+](=O)[O-])C(=O)Nc1ccc(F)cc1 (centres unmarked),-12.4%
8,CCN(CC)CC#CC(OC)(c1ccccc1)c1ccccc1.Cl,-49.2%
9,Nc1nc(Nc2ccccc2)nc(NCCO)c1[N+](=O)[O-],2.49%
10,COc1ccc(-c2cc(C(=O)N3CCN(c4ncccn4)CC3)c3ccccc3n2)cc1OC,-20.4%
11,COC(=O)c1c(-c2ccccc2Cl)noc1/C=C/N(C)C,2.21%
12,COc1ccc(C2Nc3ccc(Br)cc3C(c3ccccc3)N2CC(=O)O)cc1 (centres unmarked),18.4%
13,CCOC(=O)C1(CCOc2ccccc2)CCN(Cc2ccc(OC)c(COC)c2)CC1,-80.2%
14,N#C/C(=C/c1ccc(F)cc1)c1nc(CCN2C(=O)c3ccccc3C2=O)cs1,-6.76%
15,C/C(=N\n1cnnc1)c1ccccc1,12.1%
16,Cc1cc(C)c2c(n1)SCC(=O)N2CC(=O)Nc1c(C)cccc1C,7.05%
17,Cc1ccccc1/C=N/NC(=O)CSc1nc2ccccc2o1,5.01%
18,O=C(NC(=S)N1CCN(Cc2ccc3c(c2)OCO3)CC1)c1ccc(Cl)cc1,-23.6%
19,CCOC(=O)CSc1nc2ccccc2n1CC(=O)NC(C)(C)C,-7.86%
20,CCc1n[nH]c(=O)n1Cn1c(CC)n[nH]c1=O,8.6%
21,O=C(Nc1cccc(C(=O)Nc2cccc(Br)c2)c1)c1ccccc1,-4.34%
22,O=C(c1ccco1)N1CCN(S(=O)(=O)c2ccccc2)CC1,9.44%

row,Structure (SMILES),"hERG current change (%, negative = inhibition) at 10uM"
1,CCn1c(SCC(=O)NC(C)(C)C)nc(O)cc1=O,5.5%
2,O=C(COC(=O)CCSc1ccccc1)Nc1cc(F)ccc1F,19.7%
3,Cc1nn(-c2ccc(N3CCCCC3)nn2)c(C)c1CCC(=O)Nc1cccc(F)c1,-19%
4,O=C(NC1(C(F)(F)F)NC(=O)N(CCc2ccccc2)C1=O)C1CC1 (centres unmarked),1.57%
5,COC(=O)CN1C(=O)S/C(=C/c2ccc(N3CCCCC3)o2)C1=O,15.6%
6,CCN(CC)c1ccc(N=Cc2c(O)n(Cc3ccccc3)c(=O)[nH]c2=O)cc1 [14729657],-0.768%
7,O=[N+]([O-])c1cccc(/C=N/Nc2nc(NCc3ccccc3)nc(N3CCOCC3)n2)c1O,4.47%
8,COc1ccc(Cc2nnc(N)s2)cc1,15.3%
9,CC(Oc1ccc(Cl)cc1Cl)C(=O)NCCC1=CCCCC1 (centres unmarked),4.46%
10,O=C(N1CCCC1)C12CC3CC(C1)CC(C(=O)N1CCCC1)(C3)C2,9.48%
11,O=C(NCCO)C1CCN(S(=O)(=O)c2ccc(F)cc2)CC1,9.14%
12,CC(C)(C)NS(=O)(=O)c1ccc2c(c1)oc(=O)c1cc(S(=O)(=O)NC(C)(C)C)ccc12,6.26%
13,CSCc1ccc(C(=O)Nc2cccc(C)c2C)cc1,2.01%
14,CC(C)C(=O)Nc1ccc(NC(=O)c2ccc3c(c2)OCO3)cc1,10.2%
15,Cc1cccc2sc(NC(=O)c3ccc(NS(=O)(=O)c4cccs4)cc3)nc12,-28.8%
16,CCOCCCNC(=O)CCNC(=O)c1cc(OC)c(OC)c(OC)c1,-2.91%
17,CCC(C)Sc1ccc(-c2nc3ccc(C)cn3c2NCc2ccccc2)cc1OC.O=C(O)C(F)(F)F (centres unmarked),0.528%
18,CCCc1cc(=O)c2ccc(OCC(C)=O)cc2o1,-21%
19,COc1cccc(-c2cc(C(F)(F)F)nc(N3CCCCC3)n2)c1,19.5%
20,Cc1ccc(NC(=O)C2CC2c2ccccc2)c([N+](=O)[O-])c1 (centres unmarked),-3.54%
